Measured values: PubChem BioAssay AID743279 (National Center for Advancing Translational Sciences (NCATS), 2014)
Among all 360,000 compounds or so, about 17,000 (4.7%) were called active. This list was built around the results that the source calls inconclusive (neither active nor inactive); the mix of calls is not that of the screen. Cut-off read from the data, not from the text of the source: active = activity change below about -50%; inconclusive = mostly about -30% to -49%; inactive = weaker than that.

Assay: qHTS for Inhibitors of Inflammasome Signaling: IL-1-beta AlphaLISA Primary Screen
Conditions: THP-1 LPS/ATP IL-1B secretion, 16 h; at 57.5 µM, active compounds read low
In short: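 THP-1 cells pretreated 1 hr with compounds (up to 57.5 uM final), then stimulated with LPS (250 ng/mL final) plus ATP (1.25 mM final); secreted IL-1B measured by AlphaLISA after 16 hr, decreased signal indicating inhibition.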
% is set by controls: 0 for no effect and ±100 for the full control effect.

Activity change, inactive:
CCCN1C2CCCC1CC(NC(=O)Nc1ccc(C(C)C)cc1)C2 (stereo not drawn) 10.5%
Cc1ccc(C(=O)NCC(=O)NCC(c2cccs2)N2CCOCC2)cc1C (stereo not drawn) 0.119%
COc1ccc(Cc2nc3ccc(C(=O)N(C)Cc4nccn4C)cc3o2)cc1 12.5%
Cc1ccc(S(=O)(=O)c2cc3c(=O)n4ccccc4nc3n(CCc3ccccc3)c2=N)cc1 6.09%
COc1ccc(-c2csc(=Nc3ccccc3)n2CCO)cc1 -24%
COc1cc(/C=C/C(=O)O)ccc1OS(=O)(=O)c1c(C)cc(C)cc1C 17.4%
CC(C)C[C@H]1CN([C@@H](Cc2ccc(O)cc2)CN2CCCC2CN2C(=S)NC[C@@H]2Cc2ccccc2)C(=S)N1CC1CCCCC1 (stereo partly drawn) -29.1%
O=C(COC(=O)C1CCC(=O)N1)Nc1cccc([N+](=O)[O-])c1 (stereo not drawn) -15.7%
CCCc1cc(=S)n2c([nH]c3ccccc32)c1C#N -9.7%
COCCCn1c(=O)c2sccc2n(Cc2ccccc2)c1=O -1.84%
COc1ccc(C(=O)Oc2ccc(/C=N/NC(=O)c3ccccc3OC)cc2[N+](=O)[O-])cc1 19.9%
COc1ccc(CCNC(=O)c2cc(-c3ccccc3O)n[nH]2)cc1OC 9.79%
Cc1cccc(-n2ncc3c2CCCC3NC(=O)CN2CCCC2=O)c1C (stereo not drawn) -2.53%
CC(C)C(c1nnnn1C1CCCC1)N1CCc2ccccc21 (stereo not drawn) 7.43%
C/C=C(/C)C(=O)O[C@@H]1c2cc(OC)c(OC)c(OC)c2-c2c(cc3c(c2OC)OCO3)C[C@H](C)[C@]1(C)O 12.2%
CC1=C(C(=O)Nc2ccccc2F)C(c2ccsc2)C2=C(CC(c3ccccc3)CC2=O)N1 (stereo not drawn) -17.7%
CC(=O)c1ccc(NC(=O)C2C3CCC(C3)C2C(=O)O)cc1 (stereo not drawn) 18.5%
COc1cc(N)c2ncccc2c1Cl -3.24%
CC(=O)N(Cc1ccc(F)cc1)Cc1nc2ccccc2c(=O)[nH]1 32.8%
O=C(CSCc1cc(=O)n2ccsc2n1)Nc1ccccc1 3.97%
O=C(NCC(=O)N1CCCC1)c1ccc(Br)o1 -5.99%
[O-][N+](=Cc1ccccc1)CC1(O)CCCCC1 -12.1%
COC(=O)c1nnn(CC(=O)Nc2ccc(C)c(F)c2)c1C(=O)OC 6.64%
CC(=O)Nc1ncc(N=Nc2cccc(C(F)(F)F)c2)s1 -5.81%
Cc1ccc(C)c(N=Nc2ccc(O)c3ncccc23)c1 154%
Oc1ccc(C(=S)N2CCN(Cc3ccccc3)CC2)cc1 -1.14%
COc1cccc(C(=O)C2CCCN(Cc3cccc(OCCO)c3)C2)c1 (stereo not drawn) -1.63%
O=C1CC(c2ccccc2)CC(O)=C1C=NCCN1CCN(Cc2ccccc2)CC1 (stereo not drawn) 10.4%
Cc1cc(NC(=O)Cc2c(F)cccc2Cl)no1 2.79%
CC(C)C(NC(=O)c1ccc(F)cc1)C(=O)Nc1cccnc1 (stereo not drawn) 14.1%
COc1cc(CCCN2C(=S)NC[C@@H]2CC2CCCCC2)cc(OC)c1OC -25.4%
COc1ccc(CCn2c(C)cc(C(=O)CSc3nc(N)cc(=O)[nH]3)c2C)cc1 -17%
C[C@H](CO)N1C[C@H](C)[C@H](CN(C)C(=O)c2ccc3ccn(C)c3c2)OCc2cnnn2CCCC1=O -7.4%
Cc1ccc(/C=N/N2CCN(C3c4ccccc4-c4ccccc43)CC2)s1 17.1%
O=C(NC1CCCCC1)c1cccc(NC(=O)c2ccccc2Cl)c1 1.03%

Activity change, active:
COc1cc2c(cc1OC)CN(c1nc(-c3cccnc3)nc3ccccc13)CC2 -104%
N#Cc1cccc(Nc2c3c(nc4ccccc24)CCC3)c1 -58.6%
CC1CCN(S(=O)(=O)c2cnc(Cl)c(Br)c2)CC1 -64.5%
Cc1cc(C)c2c(n1)nn1c(-n3ccnc3)cc(C)nc21 -75.6%
COc1cc(/C=C2/SC(=S)N(Cc3ccccc3)C2=O)ccc1O -82.3%
Oc1ccc(/C=N/Nc2cccc3cccnc23)c(O)c1 -76.8%
CCCCCOc1ccc(C(O)C(CN2CCOCC2)c2ccccc2)cc1 (stereo not drawn) -61.8%
O=Nc1c(O)n(Cc2ccc(Cl)cc2Cl)c2ccccc12 -58%
O=C(c1ccc(Cl)cc1)C1CCCN(Cc2cnn(-c3ccccc3)c2)C1 (stereo not drawn) -98.2%
COc1ccc(-n2nc3c(N4CCC(C(=O)NCCc5ccccc5C)CC4)nnc(C)c3c2C)cc1 -82.8%
O=C(c1ccccc1)c1nn(-c2ccccc2)c(=O)cc1C(F)(F)F -88.1%
C/C(=C\c1ccccc1)C(=O)N1CCN(c2cccc(C(F)(F)F)c2)CC1 -64.9%
CC(C)(C)OC(=O)[C@H](Cc1ccccc1)NC(=O)c1[nH]cnc1C(=O)Nc1ccc(Cl)cc1 -59.2%
C=CCn1c(=O)c2c3c(sc2n2c(Nc4ccc(OC)cc4)nnc12)CCCC3 -70.9%

Activity change, inconclusive:
CO[C@@H]1CN(C)C(=O)c2ccc(NC(=O)C3CCC3)cc2OC[C@H](C)N(CC2CCCCC2)C[C@H]1C -46.1%
CCCCCOC(=O)C1=C(C)NC(=O)NC1c1ccc([N+](=O)[O-])cc1 (stereo not drawn) -48.3%
Cc1ccc(Nc2nc(NCc3ccccc3)nc3ccsc23)c(C)c1 -43.9%
O=C(c1ccc2ccccc2c1)C1CCCN(S(=O)(=O)c2cccnc2)C1 (stereo not drawn) -33.1%
Nc1c(C(=O)NCCc2ccccc2)sc2nc(N3CCOCC3)c3c(c12)CCCC3 -43%
COc1ccc(-c2cc(C)no2)cc1S(=O)(=O)N(C)c1ccc(C)c(C)c1 -30.1%
O=C1/C(=C/c2cccs2)SC(=S)N1CCCC(=O)N(CCO)c1ccccc1 -48.8%
CCCC[C@@H]1CNCCN1CCc1cccc2ccccc12 -45%
COc1ccc([C@H]2CC(=O)C=C(c3ccc(OC)c(OC)c3)C2)cc1 -34.9%
COc1cccc(C(C(=O)NC2CCCCC2)N(C(=O)c2cccs2)c2ccc3c(c2)OCO3)c1 (stereo not drawn) -31.5%
C/C(=N\NC(=O)C1CCCC1)c1ccc(NC(=O)C(F)(F)F)cc1 -32.5%
CN(C)C(=O)COC(=O)/C=C/c1cn(-c2ccccc2)nc1-c1cccs1 -45.1%
Cc1cc2oc3ccc(NCCC4CCCN4C)cc3c(=O)c2cc1C (stereo not drawn) -38.4%
COc1cccc(C2CC(c3cccc(Br)c3)n3nc(N)nc3N2)c1 (stereo not drawn) -30.6%
O=C(O)c1ccc2c(c1)C(=O)N(NC(=O)c1ccccc1)C2=O -31.4%
Cc1ccccc1OCC(=O)Nc1ccc(N2CCN(C(=O)c3ccco3)CC2)cc1 -43.2%
Cc1ccc(C)n1-c1ccc(N2CCOCC2)c(Br)c1 -45.3%
COc1ccc(N(CC(=O)Nc2ccccc2C(N)=O)S(=O)(=O)c2ccc(C)c([N+](=O)[O-])c2)cc1 -33.8%
COc1ccc(OC)c(/C=C(\NC(=O)c2ccccc2)C(=O)N/N=C/c2ccc(C)s2)c1 -31.2%
O=C(CN1CCN(c2nc(-c3ccc(F)cc3)cs2)CC1)NCc1ccc2c(c1)OCO2 -38.6%
COc1ccc(CCNc2ccc(S(=O)(=O)N3CCN(C)CC3)cc2[N+](=O)[O-])cc1 -31.9%
C=CCn1c(N)c(C(=O)NCC2CCCO2)c2nc3ccccc3nc21 (stereo not drawn) -47.5%
CCN(CCCNC(=O)CNC(=O)c1nn(-c2ccc(OC)c(OC)c2)c(=O)c2ccccc12)c1ccccc1 -30.2%
O=C(Nc1cccc(F)c1)C1CCN(S(=O)(=O)c2cccc3nonc23)CC1 -44.5%
CCC(C)NC(=O)c1ccc(C(=O)c2ccccc2)cc1 (stereo not drawn) -34.5%
O=C(NCC(=O)N1CCCCC1)c1sc2ccccc2c1Cl -36.6%
CC12CCC(C(=O)n3c1nc1ccccc13)C2(C)C (stereo not drawn) -38.2%
Cc1cc(=O)oc2c1c(C)nn2-c1cccc(Cl)c1 -32.2%
CSc1ccc(/C=C/C(=O)NC23CC4CC(CC(C4)C2)C3)cc1 -39.2%
COc1ccc(-n2cc(CNCc3cccnc3)c(-c3cccc(F)c3)n2)cc1 -39%
CCc1nc(N2CCC3(CC2)OCCO3)c2nnn(Cc3ccccc3Cl)c2n1 -46.3%
Cc1nn(-c2ccccc2)c(Oc2ccccc2)c1C=O -34.5%
COc1ccccc1C(=O)Nc1ccc(S(=O)(=O)N2CCC(C)CC2)cc1 -44.5%
CNc1nc(SC)nc(N(C)C#N)n1 -38.8%
CCCCN(C)C(=O)c1cc2cc3ccc(OC)cc3nc2o1 -45.8%
Cc1ccccc1-c1nc(-c2ccc(NC(=O)c3cccs3)cc2)no1 -35.1%
CCOC(=O)Cn1c(=N)n(CCOc2ccc(OC)cc2)c2ccccc21 -44.8%
COc1cc(C(=O)Nc2ccc(NC(=O)C3CC3)nc2)cc(OC)c1OC -31.4%
COc1cc(/C=N/n2cnnc2)ccc1OC(=O)c1cccnc1 -35.1%
